In the supplement of paper PMC4967469:
The IC50 comes from the fitted curve, where viability falls to half of the control; fits outside the tested doses are given as limits. AUC, from the same fit, is the share of area under the viability curve across the 256-fold dose range: 1 means no effect, lower means more sensitive. For some of these results: Any top dose called inferred comes from the curve model; the source does not state it. For some of these results: Where an entry number is given, a second screen of the drug exists; the two often differ.

Assays:
Test in all cases: Viability of human cancer cell lines after 72 h of drug (GDSC screen)
CEP-701 = compound: C[C@]12O[C@H](C[C@]1(O)CO)n1c3ccccc3c3c4c(c5c6ccccc6n2c5c31)CNC4=O [CEP-701]; details: top dose 2 µM; top dose inferred
Protocol: (§1)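 Human cancer cell lines in 384-well plates, medium with 10% serum, drug for 72 h over a 256-fold dose range (nine 2-fold or five 4-fold steps up to the top dose). Adherent lines were fixed and stained with the nucleic acid dye Syto60, suspension lines read with resazurin; signal relative to control wells, capped at 0 and 100%. One two-parameter sigmoid per drug and line, fitted in a mixed model over all curves with the slope shared within a line.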

AR-42 = compound: CC(C)[C@H](C(=O)Nc1ccc(C(=O)NO)cc1)c1ccccc1 [AR-42]; details: top dose 5.12 µM; top dose inferred
Protocol: as §1

SB 216763 = compound: Cn1cc(C2=C(c3ccc(Cl)cc3Cl)C(=O)NC2=O)c2ccccc21 [SB 216763]; details: top dose 10 µM; top dose inferred
Protocol: as §1

Pazopanib = compound: Cc1ccc(Nc2nccc(N(C)c3ccc4c(C)n(C)nc4c3)n2)cc1S(N)(=O)=O [Pazopanib]; details: top dose 8 µM
Protocol: as §1

MG-132 = compound: CC(C)C[C@@H](C=O)NC(=O)[C@H](CC(C)C)NC(=O)[C@H](CC(C)C)NC(=O)OCc1ccccc1 [MG-132]; details: top dose 1 µM
Protocol: as §1

GDC0941 = compound: CS(=O)(=O)N1CCN(Cc2cc3nc(-c4cccc5[nH]ncc45)nc(N4CCOCC4)c3s2)CC1 [GDC0941]; details: top dose 4 µM; screen: GDSC drug entry 1527; top dose inferred
Protocol: as §1

Row | Cell Line | AUC (CEP-701) | IC50 (CEP-701) [nM] | AUC (AR-42) | IC50 (AR-42) [nM] | AUC (SB 216763) | IC50 (SB 216763) [nM] | AUC (Pazopanib) | IC50 (Pazopanib) [nM] | AUC (MG-132) | IC50 (MG-132) [nM] | AUC (GDC0941) | IC50 (GDC0941) [nM]
1 | OCI-AML2 (acute myeloid leukaemia, suspension) | 0.37 | 60.5 | 0.326 | 120 | 0.995 | > 10000 | 0.969 | > 8000 | 0.741 | 244 | 0.937 | 3990
2 | SJSA-1 (bone, adherent) | 0.589 | 226 | 0.693 | 1200 | 0.942 | > 10000 | 0.964 | > 8000 | 0.837 | 797 | 0.89 | > 4000
3 | KM-H2 (Hodgkin lymphoma, suspension) | 0.962 | > 2000 | 0.984 | > 5120 | 0.985 | > 10000 | 0.981 | > 8000 | 0.686 | 189 | 0.992 | > 4000
4 | TGW (neuroblastoma, adherent) | 0.596 | 220 | 0.224 | 58.4 | 0.985 | > 10000 | 0.988 | > 8000 | 0.87 | 715 | 0.962 | > 4000
5 | NCI-H1694 (small cell lung carcinoma, suspension) | 0.736 | 587 | 0.42 | 194 | 0.989 | > 10000 | 0.98 | > 8000 | 0.956 | > 1000 | 0.823 | 2340
6 | RF-48 (stomach, adherent) | 0.761 | 792 | 0.255 | 57.5 | 0.983 | > 10000 | 0.972 | > 8000 | 0.812 | 616 | 0.932 | > 4000
7 | NCI-H209 (small cell lung carcinoma, suspension) | 0.586 | 218 | 0.986 | > 5120 | 0.98 | > 10000 | 0.961 | > 8000 | 0.934 | > 1000 | 0.926 | > 4000
8 | WSU-DLCL2 (B-cell lymphoma, suspension) | 0.592 | 213 | 0.862 | 3220 | 0.982 | > 10000 | 0.912 | > 8000 | 0.891 | 822 | 0.992 | > 4000
9 | NCI-H345 (small cell lung carcinoma, suspension) | 0.946 | > 2000 | 0.47 | 264 | 0.99 | > 10000 | 0.99 | > 8000 | 0.975 | > 1000 | 0.956 | > 4000
10 | NB10 (neuroblastoma, adherent) | 0.683 | 401 | 0.584 | 541 | 0.987 | > 10000 | 0.987 | > 8000 | 0.882 | > 1000 | 0.853 | 3010
11 | ME-1 (acute myeloid leukaemia, suspension) | 0.851 | 1700 | 0.402 | 168 | 0.988 | > 10000 | 0.989 | > 8000 | 0.878 | > 1000 | 0.988 | > 4000
12 | OCI-M1 (acute myeloid leukaemia, suspension) | 0.506 | 130 | 0.199 | 55.8 | 0.994 | > 10000 | 0.991 | > 8000 | 0.666 | 160 | 0.995 | > 4000
13 | KMOE-2 (acute myeloid leukaemia, suspension) | 0.491 | 118 | 0.369 | 146 | 0.988 | > 10000 | 0.99 | > 8000 | 0.815 | 475 | 0.715 | 935
14 | NCI-H847 (small cell lung carcinoma, adherent) | 0.632 | 267 | 0.225 | 62.2 | 0.991 | > 10000 | 0.983 | > 8000 | 0.798 | 375 | 0.767 | 1220
15 | NCI-H2141 (small cell lung carcinoma, suspension) | 0.904 | > 2000 | 0.705 | 1190 | 0.991 | > 10000 | 0.991 | > 8000 | 0.838 | 646 | 0.905 | > 4000
16 | A498 (kidney, adherent) | 0.575 |  | 0.895 | > 5120 | 0.886 | > 10000 | 0.971 | > 8000 | 0.936 | > 1000 | 0.707 | 
17 | NCI-H1155 (large cell lung carcinoma, suspension) | 0.708 | 426 | 0.524 | 368 | 0.991 | > 10000 | 0.984 | > 8000 | 0.876 | 694 | 0.973 | > 4000
18 | LS-411N (large intestine, adherent) | 0.647 | 350 | 0.361 | 121 | 0.981 | > 10000 | 0.955 | > 8000 | 0.742 | 365 | 0.881 | > 4000
19 | MN-60 (B-cell leukaemia, suspension) | 0.848 | 1580 | 0.374 | 141 | 0.982 | > 10000 | 0.965 | > 8000 | 0.94 | > 1000 | 0.752 | 1370
20 | ES7 (Ewing sarcoma, adherent) | 0.455 | 94.1 | 0.329 | 105 | 0.979 | > 10000 | 0.887 | > 8000 | 0.827 | 633 | 0.491 | 236
21 | NOS-1 (osteosarcoma, adherent) | 0.761 | 863 | 0.382 | 141 | 0.969 | > 10000 | 0.568 | 802 | 0.852 | > 1000 | 0.716 | 1190

Row | Cell Line | AUC (CEP-701) | IC50 (CEP-701) [nM] | AUC (AR-42) | IC50 (AR-42) [nM] | AUC (SB 216763) | IC50 (SB 216763) [nM] | AUC (Pazopanib) | IC50 (Pazopanib) [nM] | AUC (MG-132) | IC50 (MG-132) [nM] | AUC (GDC0941) | IC50 (GDC0941) [nM]
22 | MZ1-PC (pancreas, adherent) | 0.905 | > 2000 | 0.474 | 268 | 0.976 | > 10000 | 0.916 | > 8000 | 0.852 | > 1000 | 0.645 | 697
23 | DSH1 (bladder, adherent) | 0.78 | 785 | 0.422 | 198 | 0.958 | > 10000 | 0.963 | > 8000 | 0.409 | 35.5 | 0.92 | > 4000
24 | NAMALWA (Burkitt lymphoma, suspension) | 0.619 | 250 | 0.087 | < 20 | 0.986 | > 10000 | 0.984 | > 8000 | 0.697 | 201 | 0.831 | 1990
25 | no-11 (glioma, adherent) | 0.82 | 1550 | 0.845 | > 5120 | 0.968 | > 10000 | 0.881 | > 8000 | 0.798 | 619 | 0.87 | > 4000
26 | DG-75 (Burkitt lymphoma, suspension) | 0.474 | 106 | 0.666 | 933 | 0.986 | > 10000 | 0.984 | > 8000 | 0.985 | > 1000 | 0.836 | 2690
27 | LU-134-A (small cell lung carcinoma, suspension) | 0.711 | 516 | 0.482 | 284 | 0.986 | > 10000 | 0.961 | > 8000 | 0.882 | > 1000 | 0.883 | > 4000
28 | NCI-H716 (large intestine, suspension) | 0.653 | 371 | 0.724 | 1660 | 0.977 | > 10000 | 0.77 | 3830 | 0.966 | > 1000 | 0.561 | 384
29 | NCI-H1436 (small cell lung carcinoma, suspension) | 0.956 | > 2000 | 0.601 | 631 | 0.985 | > 10000 | 0.97 | > 8000 | 0.909 | > 1000 | 0.684 | 883
30 | NB13 (neuroblastoma, adherent) | 0.728 | 508 | 0.307 | 98.8 | 0.902 | > 10000 | 0.982 | > 8000 | 0.702 | 214 | 0.966 | > 4000
31 | ES1 (Ewing sarcoma, adherent) | 0.698 | 445 | 0.39 | 160 | 0.979 | > 10000 | 0.904 | > 8000 | 0.951 | > 1000 | 0.666 | 719
32 | HCC2998 (large intestine, adherent) | 0.914 | > 2000 | 0.673 | 959 | 0.987 | > 10000 | 0.988 | > 8000 | 0.74 | 296 | 0.935 | > 4000
33 | TUR (B-cell lymphoma, suspension) | 0.338 | 46 | 0.395 | 169 | 0.984 | > 10000 | 0.939 | > 8000 | 0.987 | > 1000 | 0.486 | 230
34 | SK-MEL-2 (melanoma, adherent) | 0.4 | 65.7 | 0.644 | 816 | 0.943 | > 10000 | 0.974 | > 8000 | 0.967 | > 1000 | 0.89 | > 4000
35 | NCI-H1395 (lung adenocarcinoma, adherent) | 0.535 | 161 | 0.76 | 2370 | 0.96 | > 10000 | 0.961 | > 8000 | 0.972 | > 1000 | 0.788 | 2410
36 | YT (lymphoid neoplasm, suspension) | 0.35 | 51.5 | 0.286 | 88.9 | 0.992 | > 10000 | 0.957 | > 8000 | 0.968 | > 1000 | 0.969 | > 4000
37 | EB-3 (Burkitt lymphoma, suspension) | 0.984 | > 2000 | 0.608 | 666 | 0.984 | > 10000 | 0.944 | > 8000 | 0.864 | > 1000 | 0.734 | 1320
38 | EC-GI-10 (oesophagus, adherent) | 0.713 | 497 | 0.846 | 3680 | 0.986 | > 10000 | 0.977 | > 8000 | 0.974 | > 1000 | 0.704 | 934
39 | MHH-PREB-1 (B-cell leukaemia, suspension) | 0.521 | 141 | 0.295 | 91 | 0.988 | > 10000 | 0.921 | > 8000 | 0.958 | > 1000 | 0.404 | 140
40 | PF-382 (T-cell lymphoblastic leukaemia, suspension) | 0.59 | 214 | 0.31 | 102 | 0.987 | > 10000 | 0.97 | > 8000 | 0.672 | 176 | 0.983 | > 4000
41 | NCI-H187 (small cell lung carcinoma, suspension) | 0.815 | 1220 | 0.529 | 385 | 0.987 | > 10000 | 0.963 | > 8000 | 0.987 | > 1000 | 0.987 | > 4000
42 | Ramos-2G6-4C10 (Burkitt lymphoma, suspension) | 0.54 | 158 | 0.371 | 149 | 0.959 | > 10000 | 0.97 | > 8000 | 0.735 | 259 | 0.644 | 584
